According to the supplement of paper PMC8728848:
This is one part of the list.

Experiments:
Assay in all cases: glycan array binding signal (z-score within array); higher = stronger binding
Conditions in all cases: glycan notation: IUPAC condensed, linker removed
[1] = target: Man(a1-2)Man(a1-3)[Man(a1-2)Man(a1-6)]Man(a1-6)[Man(a1-2)Man(a1-2)Man(a1-3)]Man(b1-4)GlcNAc(b1-4)GlcNAc
Procedure, shortened: (§1)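 Glycan array data were curated from 3228 arrays in the Consortium for Functional Glycomics database and kept only where the protein sequence was available. Glycan names were converted to IUPAC-condensed notation, and columns mapping to the same glycan were averaged. The binding signal is a within-array Z-score, averaged across arrays of the same protein sequence at different concentrations or buffers and across linkers. Negative Z-scores can be read as non-binding.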

[2] = target: Man(a1-2)Man(a1-3)[Man(a1-6)]Man(a1-6)[Man(a1-2)Man(a1-3)]Man(b1-4)GlcNAc(b1-4)GlcNAc
Procedure, shortened: as §1

[3] = target: Man(a1-2)Man(a1-6)[Man(a1-3)]Man(a1-6)[Man(a1-2)Man(a1-2)Man(a1-3)]Man
Procedure, shortened: as §1

[4] = target: Man(a1-2)Man(a1-6)[Man(a1-3)]Man(a1-6)[Man(a1-2)Man(a1-2)Man(a1-3)]Man(b1-4)GlcNAc(b1-4)GlcNAc
Procedure, shortened: as §1

Man(a1-3)[Man(a1-6)]Man = target: Man(a1-3)[Man(a1-6)]Man
Procedure, shortened: as §1

[5] = target: Man(a1-3)[Man(a1-6)]Man(a1-6)[Man(a1-2)Man(a1-3)]Man(b1-4)GlcNAc(b1-4)GlcNAc
Procedure, shortened: as §1

[6] = target: Man(a1-3)[Man(a1-6)]Man(a1-6)[Man(a1-3)]Man
Procedure, shortened: as §1

[7] = target: Man(a1-3)[Man(a1-6)]Man(a1-6)[Man(a1-3)]Man(b1-4)GlcNAc(b1-4)GlcNAc
Procedure, shortened: as §1

[8] = target: Man(a1-3)[Man(a1-6)]Man(b1-4)GlcNAc(b1-4)GlcNAc
Procedure, shortened: as §1

Man(a1-6)Man = target: Man(a1-6)Man
Procedure, shortened: as §1

Man(b1-4)GlcNAc = target: Man(b1-4)GlcNAc
Procedure, shortened: as §1

Neu5Ac(a2-3)Gal = target: Neu5Ac(a2-3)Gal
Procedure, shortened: as §1

[9] = target: Neu5Ac(a2-3)Gal(b1-3)GalNAc
Procedure, shortened: as §1

[10] = target: Neu5Ac(a2-3)Gal(b1-3)GalNAc(b1-3)Gal(a1-4)Gal(b1-4)Glc
Procedure, shortened: as §1

[11] = target: Neu5Ac(a2-3)Gal(b1-3)GalNAc(b1-3)Gal(b1-4)GlcNAc
Procedure, shortened: as §1

[12] = target: Neu5Ac(a2-3)Gal(b1-3)GalNAc(b1-4)[Neu5Ac(a2-3)]Gal(b1-4)Glc
Procedure, shortened: as §1

[13] = target: Neu5Ac(a2-3)Gal(b1-3)GalNAc6S
Procedure, shortened: as §1

[14] = target: Neu5Ac(a2-3)Gal(b1-3)GlcNAc
Procedure, shortened: as §1

[15] = target: Neu5Ac(a2-3)Gal(b1-3)GlcNAc(b1-2)Man(a1-3)[Neu5Ac(a2-3)Gal(b1-3)GlcNAc(b1-2)Man(a1-6)]Man(b1-4)GlcNAc(b1-4)GlcNAc
Procedure, shortened: as §1

[16] = target: Neu5Ac(a2-3)Gal(b1-3)GlcNAc(b1-3)Gal(b1-3)GlcNAc
Procedure, shortened: as §1

[17] = target: Neu5Ac(a2-3)Gal(b1-3)GlcNAc(b1-3)Gal(b1-4)GlcNAc
Procedure, shortened: as §1

[18] = target: Neu5Ac(a2-3)Gal(b1-3)GlcNAc(b1-3)GalNAc
Procedure, shortened: as §1

[19] = target: Neu5Ac(a2-3)Gal(b1-3)GlcNAc6S
Procedure, shortened: as §1

[20] = target: Neu5Ac(a2-3)Gal(b1-3)[Fuc(a1-4)]GlcNAc
Procedure, shortened: as §1

[21] = target: Neu5Ac(a2-3)Gal(b1-3)[Fuc(a1-4)]GlcNAc(b1-3)Gal(b1-3)[Fuc(a1-4)]GlcNAc
Procedure, shortened: as §1

[22] = target: Neu5Ac(a2-3)Gal(b1-3)[Fuc(a1-4)]GlcNAc(b1-3)Gal(b1-4)[Fuc(a1-3)]GlcNAc
Procedure, shortened: as §1

[23] = target: Neu5Ac(a2-3)Gal(b1-3)[Neu5Ac(a2-3)Gal(b1-4)]GlcNAc
Procedure, shortened: as §1

[24] = target: Neu5Ac(a2-3)Gal(b1-3)[Neu5Ac(a2-6)]GalNAc
Procedure, shortened: as §1

Neu5Ac(a2-3)Gal(b1-4)Glc = target: Neu5Ac(a2-3)Gal(b1-4)Glc
Procedure, shortened: as §1

[25] = target: Neu5Ac(a2-3)Gal(b1-4)GlcNAc
Procedure, shortened: as §1

[26] = target: Neu5Ac(a2-3)Gal(b1-4)GlcNAc(b1-2)Man(a1-3)[GlcNAc(b1-2)Man(b1-4)GlcNAc(b1-2)Man(a1-6)]Man(b1-4)GlcNAc(b1-4)GlcNAc
Procedure, shortened: as §1

[27] = target: Neu5Ac(a2-3)Gal(b1-4)GlcNAc(b1-2)Man(a1-3)[Neu5Ac(a2-6)Gal(b1-4)GlcNAc(b1-2)Man(a1-6)]Man(b1-4)GlcNAc(b1-4)GlcNAc
Procedure, shortened: as §1

[28] = target: Neu5Ac(a2-3)Gal(b1-4)GlcNAc(b1-3)Gal(b1-3)GlcNAc
Procedure, shortened: as §1

[29] = target: Neu5Ac(a2-3)Gal(b1-4)GlcNAc(b1-3)Gal(b1-4)GlcNAc
Procedure, shortened: as §1

[30] = target: Neu5Ac(a2-3)Gal(b1-4)GlcNAc(b1-3)Gal(b1-4)GlcNAc(b1-3)Gal(b1-4)GlcNAc
Procedure, shortened: as §1

[31] = target: Neu5Ac(a2-3)Gal(b1-4)GlcNAc(b1-3)Gal(b1-4)[Fuc(a1-3)]GlcNAc
Procedure, shortened: as §1

[32] = target: Neu5Ac(a2-3)Gal(b1-4)GlcNAc(b1-3)GalNAc
Procedure, shortened: as §1

B1: CLEC-1 (Homo sapiens), Q9NZH3 (protein)
chain: MQAKYSSTRDMLDDDGDTTMSLHSQASATTRHPEPRRTEHRAPSSTWRPVALTLLTLCLVLLIGLAAWGLLFFQYYQLSNTGQDTISQMEERLGNTSQELQSLQVQNIKLAGSLQHVAEKLCRELYNKAGAHRCSPCTEQWKWHGDNCYQFYKDSKSWEDCKYFCLSENSTMLKINKQEDLEFAASQSYSEFFYSYWTGLLRPDSGKAWLWMDGTPFTSELFHIIIDVTSPRSRDCVAILNGMIFSKDCKELKRCVCERRAGMVKPESLHVPPETLGEGD
glycan array binding signal (z-score) [1]: -0.155
glycan array binding signal (z-score) [2]: -0.278
glycan array binding signal (z-score) [3]: -0.28
glycan array binding signal (z-score) [4]: -0.285
glycan array binding signal (z-score) (Man(a1-3)[Man(a1-6)]Man): -0.319
glycan array binding signal (z-score) [5]: 0.433
glycan array binding signal (z-score) [6]: -0.502
glycan array binding signal (z-score) [7]: -0.228
glycan array binding signal (z-score) [8]: -0.543
glycan array binding signal (z-score) (Man(a1-6)Man): -0.495
glycan array binding signal (z-score) (Man(b1-4)GlcNAc): -0.245
glycan array binding signal (z-score) (Neu5Ac(a2-3)Gal): -0.021
glycan array binding signal (z-score) [9]: -0.25
glycan array binding signal (z-score) [10]: 1.29
glycan array binding signal (z-score) [11]: -0.135
glycan array binding signal (z-score) [12]: -0.378
glycan array binding signal (z-score) [13]: -0.175
glycan array binding signal (z-score) [14]: -0.199
glycan array binding signal (z-score) [15]: -0.325
glycan array binding signal (z-score) [16]: -0.25
glycan array binding signal (z-score) [17]: -0.576
glycan array binding signal (z-score) [18]: -0.439
glycan array binding signal (z-score) [19]: -0.373
glycan array binding signal (z-score) [20]: -0.39
glycan array binding signal (z-score) [21]: -0.196
glycan array binding signal (z-score) [22]: -0.255
glycan array binding signal (z-score) [23]: -0.558
glycan array binding signal (z-score) [24]: 0.011
glycan array binding signal (z-score) (Neu5Ac(a2-3)Gal(b1-4)Glc): -0.377
glycan array binding signal (z-score) [25]: -0.451
glycan array binding signal (z-score) [26]: -0.588
glycan array binding signal (z-score) [27]: -0.284
glycan array binding signal (z-score) [28]: -0.293
glycan array binding signal (z-score) [29]: -0.229
glycan array binding signal (z-score) [30]: -0.383
glycan array binding signal (z-score) [31]: -0.157
glycan array binding signal (z-score) [32]: -0.713
